Test system: C57BL/6 mice
Assay type: in vivo, mouse
Settings: 0.25 g/L in drinking water day -7 to day -2; measured 2 days after a 5 day course (day 0)

SMILES: CCN1CCN(c2cc3c(cc2F)c(=O)c(C(=O)O)cn3C2CC2)CC1 [enro, enrofloxacin, reference compound]
- serum endotoxin levels after antibiotic treatment: led to an increase in serum endotoxin levels
